From patent US20230414778A1, “COMBINATION OF ANTIBODY-DRUG CONJUGATE WITH ANTI-SIRPalpha ANTIBODY” (DAIICHI SANKYO COMPANY, LIMITED, priority 2020, published 2023)

Experiments:
human SIRPα = human SIRPα (Homo sapiens, UniProt P78324); conditions: antibodies described in WO 2020/013170; cited from earlier work
[1] = tested on: CD47, HER2 and TROP2 positive human gastric cancer cell line AGS cells; assay: ADCP activity to cancer cell line; assay type: cell-based
[2] = target: binding between SIRPα and CD47 (Homo sapiens, UniProt P78324); conditions: antibodies described in WO 2020/013170; cited from earlier work

B1: hD13_H1L3: humanized anti-SIRPα antibody, heavy chain residues 20 to 466 of SEQ ID NO: 13, light chain residues 21 to 234 of SEQ ID NO: 16 (antibody)
heavy: QVQLVESGGGVVQPGRSLRLSCAASGFTFSDYGMIWVRQAPGKGLEWVASISSSSSYIYYADSVKGRFTISRDNSKNRLYLQMNSLRAEDTAVYYCARRYYGFNYPFDYWGQGTMVTVSSASTKGPSVFPLAPCSRSTSESTAALGCLVKDYFPEPVTVSWNSGALTSGVHTFPAVLQSSGLYSLSSVVTVPSSSLGTKTYTCNVDHKPSNTKVDKRV[… human IgG4 Fc with S228P F234A L235A (EU numbers) …]
light: DTQLTQSPSSLSASVGQRVTITCGASKSVRTYMHWYQQKPGKQPKLLIYSASNLEAGVPSRFSGSGSGTDFTLTISSLQPEDFATYYCQQSNEPPYTFGQGTKLEIKRTVAAPSVFIFPPSDEQLKSGTASVVCLLNNFYPREAKVQWKVDNALQSGNSQESVTEQDSKDSTYSLSSTLTLSKADYEKHKVYACEVTHQGLSSPVTKSFNRGEC
binding activity to human SIRPα (human SIRPα): high binding activity
ADCP activity, anti-SIRPα antibody concentration varied ([1]; hD13_H1L3 0 to 2000 ng/mL with antibody-drug conjugate (1) constant at 1000 ng/mL (FIG. 31C)): increased in an anti-SIRPα antibody concentration dependent manner
ADCP activity, anti-SIRPα antibody concentration varied ([1]; hD13_H1L3 0 to 2000 ng/mL with antibody-drug conjugate (2) constant at 1000 ng/mL (FIG. 31D)): increased in an anti-SIRPα antibody concentration dependent manner
inhibitory activity against the binding between SIRPα and CD47 [2]: high inhibitory activity
